The whole screen tested about 310,000 compounds, of which about 2,200 (0.71%) showed an effect of 50% or more. Effects have a minus sign here. The list shows a part of the results.
target: human ether-à-go-go-related gene (hERG) potassium channel (human, UniProt Q12809); assay: primary screen, population patch clamp on CHO cells stably expressing hERG
Sequence (Q12809 whole entry, looked up): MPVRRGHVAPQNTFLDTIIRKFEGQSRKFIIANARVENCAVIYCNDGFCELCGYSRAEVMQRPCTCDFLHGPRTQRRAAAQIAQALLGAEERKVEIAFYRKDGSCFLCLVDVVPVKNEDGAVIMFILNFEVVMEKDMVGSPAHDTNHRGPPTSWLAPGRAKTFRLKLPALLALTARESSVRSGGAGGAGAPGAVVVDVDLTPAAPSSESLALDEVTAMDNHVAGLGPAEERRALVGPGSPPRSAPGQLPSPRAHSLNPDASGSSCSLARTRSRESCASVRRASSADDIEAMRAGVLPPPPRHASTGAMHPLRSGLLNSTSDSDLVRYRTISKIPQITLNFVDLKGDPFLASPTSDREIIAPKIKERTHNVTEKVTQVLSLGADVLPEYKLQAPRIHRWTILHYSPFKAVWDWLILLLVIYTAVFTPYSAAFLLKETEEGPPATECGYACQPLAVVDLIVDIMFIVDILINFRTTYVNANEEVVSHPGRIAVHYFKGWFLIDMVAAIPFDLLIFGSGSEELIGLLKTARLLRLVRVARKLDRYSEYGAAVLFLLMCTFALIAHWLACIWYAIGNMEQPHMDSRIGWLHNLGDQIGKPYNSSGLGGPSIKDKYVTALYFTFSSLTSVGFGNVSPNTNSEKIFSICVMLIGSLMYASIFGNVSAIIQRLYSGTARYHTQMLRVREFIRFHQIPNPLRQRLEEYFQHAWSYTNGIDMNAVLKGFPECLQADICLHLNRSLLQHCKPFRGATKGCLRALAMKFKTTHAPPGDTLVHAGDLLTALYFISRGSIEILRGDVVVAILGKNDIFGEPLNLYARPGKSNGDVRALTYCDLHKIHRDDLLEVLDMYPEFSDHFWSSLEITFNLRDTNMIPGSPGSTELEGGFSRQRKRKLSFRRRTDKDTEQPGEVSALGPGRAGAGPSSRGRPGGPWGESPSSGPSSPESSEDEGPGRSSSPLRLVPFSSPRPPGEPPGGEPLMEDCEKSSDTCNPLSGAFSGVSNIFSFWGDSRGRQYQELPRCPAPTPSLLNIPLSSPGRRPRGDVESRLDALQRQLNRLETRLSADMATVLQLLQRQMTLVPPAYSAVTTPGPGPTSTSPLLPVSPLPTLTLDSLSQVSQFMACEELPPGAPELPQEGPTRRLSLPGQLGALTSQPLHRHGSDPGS

Row | SMILES | hERG current change (%, negative = inhibition) at 1uM
1 | CCOc1cccc(N2C(=O)/C(=C/c3ccco3)C(=O)NC2=S)c1 | 10.4%
2 | COc1cccc(C(=O)Nc2ccc3c(c2)CCCN3C(=O)c2cccs2)c1OC | 10.3%
3 | Cc1cccc(C(=O)NCC(=O)OCc2nnc(-c3ccccc3)o2)c1 | 10.5%
4 | CCOc1cc(C(c2c(C)[nH][nH]c2=O)c2c(C)[nH][nH]c2=O)ccc1OS(=O)(=O)c1ccc(C)cc1 | 15.5%
5 | COc1ccccc1NC(=O)NCCCl | 13.5%
6 | Cc1cc(C)n(CCCNC(=O)Cn2nnnc2CN2C[C@@H](C)O[C@@H](C)C2)n1 | 10.3%
7 | CCCOC(=O)Nc1nnc(CCC)s1 | -6.5%
8 | Cc1cc(C)c(NC(=O)Cn2cc3c(n2)CCCC3)c(C)c1 | 10%
9 | c1ccc(Cn2nnnc2C(c2cccnc2)N2CCN(c3ccccc3)CC2)cc1 (centres unmarked) | 1.03%
10 | Cc1ccc(NC(=O)CCNS(=O)(=O)c2cccc3nonc23)cc1 | 6.65%
11 | O=C1NC(c2cccs2)Nc2ccccc21 (centres unmarked) | 5.75%
12 | COC(=O)c1c(NC(=O)C2CC=CCC2C(=O)O)sc(C)c1C (centres unmarked) | 0.631%
13 | Cc1cc(NS(=O)(=O)c2ccc(NC(=O)c3ccco3)cc2)nc(C)n1 | 12.6%
14 | CCCSc1nnc2n(C)c(=O)c3c4c(sc3n12)CCC4 | -32.7%
15 | O=C(NCCC1=CCCCC1)C1CC(=O)N(C2CCCCC2)C1 (centres unmarked) | 0.327%
16 | O=C(COC(=O)Cc1ccc(Cl)cc1Cl)Nc1ccc(OC(F)F)cc1 | 10.8%
17 | CCOCCCNC(=O)c1ccccc1NC(=O)C1=C(C)OCCS1 | 12.6%
18 | COc1cc(/C=N/NC(=O)CCn2c3ccccc3c3ccccc32)cc(OC)c1OC | 9.14%
19 | COc1ccc(CSc2nc(C)[nH]c2[N+](=O)[O-])cc1[N+](=O)[O-] | 12.3%
20 | O=C(O)C1CC(=O)N(c2ccc(F)cc2)C1 (centres unmarked) | 8.22%
21 | Cc1ccc(N2C(=O)c3ccc(C(=O)O)cc3C2=O)c(C)c1 | 12.7%
22 | C=CCNC(=O)c1c2c(nc3ccccc13)-c1ccccc1CC2 | -13.3%

Row | SMILES | hERG current change (%, negative = inhibition) at 1uM
23 | Cc1ccc(S(=O)(=O)N(C)C)cc1NS(=O)(=O)c1ccc(Cl)s1 | 12.8%
24 | CC(C)(C)C1(C)OC(=O)C(=Cc2ccc(OCC(=O)Nc3ccccc3)cc2)C(=O)O1 (centres unmarked) | 5.84%
25 | COc1cc(CNCc2ccc(C(=O)O)cc2)ccc1OCc1ccc(F)cc1.Cl | 9.76%
26 | Cn1ccc(CC(=O)N2CCC(N3CCC(C(=O)N4CCCC4)CC3)CC2)c1 | 8.28%
27 | CCCCN(Cc1cccs1)S(=O)(=O)c1csc(C(N)=O)c1 | -0.0485%
28 | O=C(NC1CCCC1)C(c1ccccc1)N(C(=O)c1ccco1)C1CCCC1 (centres unmarked) | 10%
29 | CCOc1ccccc1NC(=O)C(OC(=O)c1ccccc1)c1ccccc1 (centres unmarked) | 32.8%
30 | O=C(CNCc1cccs1)Nc1cc(S(=O)(=O)N2CCCC2)ccc1Cl | 1.29%
31 | COc1cc(/C=C(\C#N)C(=O)Nc2cc(C(F)(F)F)ccc2Cl)ccc1OCC(=O)Nc1cccc(C(F)(F)F)c1 | 15.3%
32 | COc1ccc(Br)cc1CN1CCN(C(=O)c2ccc(F)cc2)CC1.O=C(O)C(=O)O | 17.2%
33 | O=C(Nc1ccccc1)ON=C1CCCC1 | 3.73%
34 | O=C(CN1CCC(c2nc3ccccc3s2)CC1)NCc1ccccc1 | -44.6%
35 | CC(=O)N1CCN(C(=O)CSc2nc3c(cnn3-c3ccccc3)c(=O)[nH]2)CC1 | 1.79%
36 | COc1ccccc1N1CCN(C(=O)CCCN2C(=O)c3cccc4cccc(c34)C2=O)CC1.Cl | -89.5%
37 | COCC(=O)Oc1c(S(=O)(=O)c2ccc(C)cc2)c(C)nn1C(C)(C)C | 14.8%
38 | CCn1c(SCC(=O)N2CCN(C)CC2)nc2c1c(=O)n(C)c(=O)n2C | 13%
39 | Cc1cc(C)nc(-n2nc(C)cc2NC(=O)c2ccc(S(=O)(=O)N3CCOCC3)cc2)n1 | 13.6%
40 | COCCN(CCOC)S(=O)(=O)c1ccc(NC(=O)c2cnccn2)cc1 | 12.1%
41 | Cn1c2c(c(=O)n(C)c1=O)C(C(F)(F)F)(C(F)(F)F)N=C(c1ccccc1Cl)N2 | 19.5%
42 | CCOc1cc(C2NC(=O)N(C)C(C)=C2[N+](=O)[O-])ccc1OC(C)=O (centres unmarked) | 8.47%
43 | Cc1nc(NC(=O)C2CC2)sc1C(=O)Nc1ccccc1Cl | 17.5%
44 | O=C(NCc1cccs1)c1cccnc1Cl | 5.45%

Row | SMILES | hERG current change (%, negative = inhibition) at 1uM
45 | CCN(C(=O)Cc1c(C(=O)O)[nH]c2ccccc12)c1cc(OC)ccc1OC | 3.47%
46 | CCOc1ccccc1NC(=O)COc1ccc2c(c1)OCO2 | 14.1%
47 | CCOC(=O)C1CCCN(C(=O)c2cccc3ccccc23)C1 (centres unmarked) | 15.2%
48 | CCOc1ccccc1Nc1nnc(SCC(=O)Nc2nc(-c3ccc(OC)cc3)cs2)s1 | 6%
49 | Cc1ccc(OCC(=O)Nc2cccc(-c3nnc(-c4ccccc4)o3)c2)c(C)c1 | -2.15%
50 | CC(=O)Cn1c(=O)c2c(nc3n2CCCN3Cc2ccccc2)n(C)c1=O | 9.57%
51 | COP(=O)(CN(Cc1ccccc1)C(=S)Nc1c(C)cccc1C)OC | 10.7%
52 | O=c1c2cc(-c3ccccc3)sc2nc2n1CCC2 | 6.69%
53 | Cc1ccc(C(C(=O)NC(C)(C)C)N(CC2CCCO2)C(=O)CCC(=O)Nc2ccccn2)cc1 (centres unmarked) | 12.2%
54 | O=C(Nc1ccc([N+](=O)[O-])cc1)/C(=C/c1cccc([N+](=O)[O-])c1)NC(=O)C1CCCCC1 | -18.8%
55 | CC(NC(=S)NC(=O)c1ccccc1)c1ccccc1 (centres unmarked) | 10.5%
56 | CCn1c(CC(=O)Nc2ccc(F)cc2)nnc1SCC(=O)Nc1nnc(C)s1 | 13.4%
57 | CCOc1ccc(C(=O)N/N=C(\c2ccccc2)c2ccccn2)cc1 | -6.27%
58 | CCOc1ccc(-c2nnn(CC(=O)NCc3ccccc3)n2)cc1 | 17.5%
59 | O=C(NC(=S)Nc1ccc(Br)cn1)c1cccnc1 | 17.1%
60 | Cl.O=C1CC[C@@]2(O)[C@H]3Cc4ccc(O)c5c4[C@@]2(CCN3CC2CC2)[C@H]1O5 | 12.3%
61 | Cc1ccccc1NC(=O)C1CCN(S(=O)(=O)c2cccc3nonc23)CC1 | 13.2%
62 | COC(=O)c1ccccc1NC(=O)N1CCN(C(=O)c2ccco2)CC1 | -2.84%
63 | c1ccc(OCCOc2ncnc3sccc23)cc1 | 9.61%
64 | CCCc1cc(NCc2ccccn2)n2nc(C)c(-c3ccccc3)c2n1 | 10.1%
65 | COc1ccc(NC(=O)NC(C)(C(F)(F)F)C(F)(F)F)cc1 | 14.6%
66 | CC(C)C(=O)Nc1ncc(C(F)(F)F)cc1Cl | 17.7%

Row | SMILES | hERG current change (%, negative = inhibition) at 1uM
67 | CCN(CC(=O)Nc1ccc(OC)cc1)C(=O)c1ccc2c(c1)NC(=O)C(C)S2 (centres unmarked) | 7.69%
68 | CCOC(=O)Cn1c(CN(Cc2ccccc2)Cc2ccccc2)nc2c1c(=O)n(C)c(=O)n2C | 0.492%
69 | O=C(CSc1n[nH]c(-c2cccs2)n1)N1CCN(S(=O)(=O)c2ccccc2)CC1 | 18.2%
70 | COCCCn1c(SCC(=O)N2CCc3ccccc32)nnc1-c1ccoc1C | -0.137%
71 | COC(=O)c1cc(F)c(-n2cncn2)c(F)c1 | 0.768%
72 | CSc1ccc(Cn2nnc(C(=O)NCc3ccccc3)c2N)cc1 | 0.777%
73 | CSc1ccccc1NC(=O)CN(C)C(=O)c1cccc(S(=O)(=O)N(C)C)c1 | 11.2%
74 | CCOC(=O)C(=CNCC(=O)OC)C(=O)OCC | 8.02%
75 | O=C(CNC(=O)c1cccc(Cl)c1)NCC(c1cccs1)N1CCOCC1 (centres unmarked) | 0.315%
76 | COC(=O)[C@@]12CCCCN1[C@H](c1ccc(-c3cc(C(C)=O)cs3)cc1)[C@H]1C(=O)N(C)C(=O)[C@H]12.O=C(O)C(F)(F)F | 9.68%
77 | CC(=O)N1CC=C2C(C#N)=C(N)C(C#N)(C#N)C(C)C2C1 (centres unmarked) | 14.8%
78 | O=C(/C=C/c1ccco1)Nc1ccc2c(c1)OCCO2 | 12.2%
79 | CCC(=O)NC(=S)Nc1ccc(NC(=O)COc2ccccc2)cc1 | 19.7%
80 | O=C(O)Cc1ccc(Nc2cnn(C34CC5CC(CC(CC(=O)O)(C5)C3)C4)c(=O)c2Cl)cc1 | 13.3%
81 | Cc1nn(CCC#N)c(NC(=O)c2ccc(Cl)cc2Cl)c1P(=O)(Nc1ccc([N+](=O)[O-])cc1)N1CCOCC1 (centres unmarked) | -4.29%
82 | C=CCn1c(=NC(=O)c2cccs2)sc2cc(NC(C)=O)ccc21 | 15%
83 | CN(CCNC(=O)CCNC(=O)Cn1ccc2ccccc2c1=O)Cc1ccccc1 | 9.43%
84 | CS(=O)(=O)NC1c2cccc3cccc(c23)C1Sc1nncn1/N=C/c1ccco1 (centres unmarked) | -3.39%
85 | COc1ccc(CCNC(=O)Cn2cc(C(F)(F)F)cc(Cl)c2=O)cc1OC | -0.426%
86 | COC(=O)c1c(NC(=O)CC2Nc3cc(C)c(C)cc3NC2=O)sc(C)c1C (centres unmarked) | -1.33%
